# Test results taken from PubChem BioAssay (NCATS).
# Inconclusive results, whose numbers are uncertain, are shown with a selection of clear calls. For part of these data: Potencies of inconclusive entries are left out as doubtful fits. Calls of active or inactive are those of the source. Unless noted, calls follow the shape of the dose curve; as a rule, active = well fitted curve in the direction sought with a large enough effect; inconclusive = small, poorly fitted or top-dose-only effect, or another doubt; inactive = no such curve, though single readings can be large; an effect the other way counts as inactive or inconclusive.
# Experiments:
# [1] = qHTS for differential inhibitors of proliferation of Plasmodium falciparum line 7G8 (AID 1815);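 also: potency is read from the fitted curve at half-maximal effect; parasite growth measured after three days of incubation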
# [2] = qHTS for differential inhibitors of proliferation of Plasmodium falciparum line GB4 (AID 1816); conditions: Potency: Plasmodium falciparum GB4 proliferation inhibition;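 also: potency is read from the fitted curve at half-maximal effect; parasite growth measured after 72 h incubation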
# [3] = qHTS for differential inhibitors of proliferation of Plasmodium falciparum line 3D7 (AID 1876); also: potency is read from the fitted curve at half-maximal effect
# [4] = qHTS for differential inhibitors of proliferation of Plasmodium falciparum line D10 (AID 1877);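 also: parasites grown with compound for 72 h before DNA staining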; also: potency is read from the fitted curve at half-maximal effect;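 as to activity change, negative = inhibition: plate controls were vehicle wells for no effect and reference inhibitor wells for full effect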
# [5] = qHTS for differential inhibitors of proliferation of Plasmodium falciparum line Dd2 (AID 1882); conditions: Potency: Plasmodium falciparum Dd2 proliferation inhibition; also: nearly all actives have a fitted effect of over 65% in size; also: potency is read from the fitted curve at half-maximal effect;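 as to activity change, negative = inhibition: compound exposure of 72 h on infected erythrocytes; plate controls were DMSO vehicle for no effect and 0.29 µM artemisinin for full effect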
# Summary of the method: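 RBC culture, 0.3% parasitemia / 2.5% Hct final; cpd added by pin tool in DMSO; 72 h, 37 C, 5% CO2; lysis buffer + SYBR Green I, o/n RT dark; FI 485/535; norm. to artemisinin 0.29 uM and DMSO.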
# [6] = target: Ferritin light chain (Equus caballus) (UniProt P02791); test: qHTS Validation Assay for Identification of Novel General Anesthetics (AID 2323); also: potency is read from the fitted curve at half-maximal effect
# Chain of UniProt P02791 (P02791 whole entry, looked up): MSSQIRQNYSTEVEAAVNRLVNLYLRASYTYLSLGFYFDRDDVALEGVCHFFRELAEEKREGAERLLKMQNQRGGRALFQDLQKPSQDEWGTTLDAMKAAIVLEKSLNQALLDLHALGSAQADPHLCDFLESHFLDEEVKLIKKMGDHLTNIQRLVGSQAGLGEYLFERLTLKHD
# Summary of the method: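 Horse-spleen apoferritin (10 uM) in PBS with 50% saturated 1-aminoanthracene; compounds pin-transferred, 10 min at room temperature. Fluorescence read at 380/535 nm, normalized to free 1-AMA and 1-AMA/apoferritin values; four-parameter Hill fit.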
# [7] = Cytometric Cell-Based qHTS for Inhibitors of the mTORC1 Signaling Pathway in MEF (Tsc2-/-, p53-/-) Cells (AID 2660); also: potency is read from the fitted curve at half-maximal effect;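 as to activity change, negative = inhibition: Tsc2 and p53 null MEFs carrying empty vector with compound for 24 h; percent of cells above a phospho-rpS6 to PI ratio cutoff in each well; plate controls were DMSO for no effect and rapamycin for full effect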
# Summary of the method: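 Readout: Alexa-488 phospho-rpS6 (Ser235/236) intensity divided by PI intensity, thresholded against 7.5 nM rapamycin wells and reported as % positive cells. PI cell count served as the viability measure. Compound exposure was 24 hrs at 37 degree Celsius.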
# [8] = target: Muscarinic acetylcholine receptor M1 (Rattus norvegicus) (UniProt P08482); test: qHTS Assay for Antagonists of Acetylcholine Muscarinic M1 Receptor: Measurement of IP-One Response (AID 944); also: potency is read from the fitted curve at half-maximal effect; nearly all actives have a fitted effect of over 75% in size
# Chain of UniProt P08482 (P08482 whole entry, looked up): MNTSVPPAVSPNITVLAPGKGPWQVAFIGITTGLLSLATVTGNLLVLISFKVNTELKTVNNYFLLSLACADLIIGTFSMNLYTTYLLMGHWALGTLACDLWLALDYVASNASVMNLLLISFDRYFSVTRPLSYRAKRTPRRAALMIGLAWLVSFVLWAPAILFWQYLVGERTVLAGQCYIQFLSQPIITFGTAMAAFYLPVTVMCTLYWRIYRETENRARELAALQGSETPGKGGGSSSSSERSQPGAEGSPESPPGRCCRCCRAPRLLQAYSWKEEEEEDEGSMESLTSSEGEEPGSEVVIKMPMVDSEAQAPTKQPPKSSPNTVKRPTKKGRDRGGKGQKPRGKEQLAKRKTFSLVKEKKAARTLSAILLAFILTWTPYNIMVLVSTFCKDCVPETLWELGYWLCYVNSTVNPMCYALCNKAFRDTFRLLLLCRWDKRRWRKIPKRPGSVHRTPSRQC
# [9] = target: Chromobox protein homolog 1 (Homo sapiens) (UniProt P83916); test: qHTS Validation Assay for Inhibitors of HP1-beta Chromodomain Interactions with Methylated Histone Tails (AID 488953); also: potency is read from the fitted curve at half-maximal effect; nearly all actives have a fitted effect of over 50% in size
# Chain of UniProt P83916 (P83916 whole entry, looked up): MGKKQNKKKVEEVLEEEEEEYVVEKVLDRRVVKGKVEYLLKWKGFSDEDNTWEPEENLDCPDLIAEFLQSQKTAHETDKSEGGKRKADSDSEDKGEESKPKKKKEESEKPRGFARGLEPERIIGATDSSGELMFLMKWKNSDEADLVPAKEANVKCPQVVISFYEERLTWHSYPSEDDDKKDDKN
# Summary of the method: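 Compounds pinned into a preassembled complex of HP1-beta and trimethyl-K9 histone H3(1-18) biotin peptide (50 nM each; PBS pH 7.4, 0.01% Tween-20). After 30 min, bead-based AlphaScreen detection followed.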
# [10] = target: Peptidyl-prolyl cis-trans isomerase NIMA-interacting 1 (Homo sapiens) (UniProt Q13526); test: qHTS Validation Assay to Find Inhibitors of Pin1 (AID 504536; active = well fitted inhibition curve with a large enough effect in the polarisation, with a control signal flat, not every such curve was filed as active; inconclusive = small, poorly fitted or top-dose-only effect, or effect the other way; the % refers to the polarisation; also: potency is read from the fitted curve at half-maximal effect)
# Chain of UniProt Q13526 (Q13526 whole entry, looked up): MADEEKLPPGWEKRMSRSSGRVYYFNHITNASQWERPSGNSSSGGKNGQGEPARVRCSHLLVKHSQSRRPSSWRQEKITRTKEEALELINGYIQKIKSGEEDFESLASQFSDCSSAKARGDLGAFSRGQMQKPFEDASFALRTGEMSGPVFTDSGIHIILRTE
# Summary of the method: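 Fluorescence polarization competition: compounds (titration) displace HiFluor-488-labeled Pin1-1b peptide from Pin1 (0.3 uM final) in pH 7.5 HEPES buffer with DTT, 10 min at room temperature; %Activity normalized to no-enzyme wells, curves fitted.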
# [11] = target: Thioredoxin reductase 1, cytoplasmic (Rattus norvegicus) (UniProt O89049); test: qHTS Assay for Inhibitors of Mammalian Selenoprotein Thioredoxin Reductase 1 (TrxR1) (AID 488773); conditions: Potency: inhibition;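 also: drop in NADPH fluorescence over an 8 min run after selenite addition; % is scaled to controls: 0 for no effect and ±100 for the full control effect; nearly all actives have a fitted effect of over 40% in size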
# Chain of UniProt O89049 (O89049 whole entry, looked up): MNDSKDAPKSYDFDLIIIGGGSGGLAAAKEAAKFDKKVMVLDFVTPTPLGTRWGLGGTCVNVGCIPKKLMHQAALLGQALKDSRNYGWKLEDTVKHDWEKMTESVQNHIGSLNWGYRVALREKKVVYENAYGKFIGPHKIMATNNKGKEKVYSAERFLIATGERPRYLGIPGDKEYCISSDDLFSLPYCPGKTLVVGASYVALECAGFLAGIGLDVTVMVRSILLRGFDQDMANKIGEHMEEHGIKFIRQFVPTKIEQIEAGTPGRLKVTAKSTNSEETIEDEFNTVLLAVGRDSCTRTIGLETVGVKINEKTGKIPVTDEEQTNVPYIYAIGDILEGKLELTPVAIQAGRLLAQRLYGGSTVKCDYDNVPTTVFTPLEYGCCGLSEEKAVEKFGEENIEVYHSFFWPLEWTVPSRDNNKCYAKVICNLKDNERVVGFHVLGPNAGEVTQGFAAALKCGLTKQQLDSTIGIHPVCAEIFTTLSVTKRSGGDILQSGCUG
# Summary of the method: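 Inhibition is scored from the loss of NADPH fluorescence between first and last reads of an 8-min kinetic run. Selenite (400 uM) was the substrate, added after 15 min compound preincubation at room temperature.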
# [12] = target: N-terminal Xaa-Pro-Lys N-methyltransferase 1 (Homo sapiens) (UniProt Q9BV86); test: qHTS Assay for Inhibitors of N-terminal methyltransferase 1 (NTMT1): LOPAC validation of the NTMT1 SAHH-coupled ThioGlo3 Assay (AID 1347143);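 also: SAH from peptide methylation measured as thiol fluorescence via SAHH coupling and ThioGlo3; nearly all actives have a fitted effect of over 70% in size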; also: potency is read from the fitted curve at half-maximal effect; as to activity change, negative = inhibition: % is scaled to controls: 0 for no effect and ±100 for the full control effect
# Chain of UniProt Q9BV86 (Q9BV86 whole entry, looked up): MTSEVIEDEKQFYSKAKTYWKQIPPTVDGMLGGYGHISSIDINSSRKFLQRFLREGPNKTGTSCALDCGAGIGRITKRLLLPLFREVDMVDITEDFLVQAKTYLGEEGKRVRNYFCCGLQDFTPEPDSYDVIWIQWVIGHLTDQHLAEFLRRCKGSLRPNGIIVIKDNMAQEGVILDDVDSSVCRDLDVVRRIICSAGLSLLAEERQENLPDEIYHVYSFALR
# Summary of the method: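 In this qHTS pilot against the LOPAC set, 125nM NTMT1 met compounds tested at multiple concentrations, and fluorescence was normalized to background.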
# [13] = qHTS Assay for Identification of Small Molecule Antagonists for NFkB Signaling Pathway (AID 895; active = well fitted inhibition curve with a large enough effect in the signal ratio, with a control signal flat, not every such curve was filed as active; inconclusive = small, poorly fitted or top-dose-only effect, or effect the other way, or a change in a side signal; the % refers to the signal ratio; also: potency is read from the fitted curve at half-maximal effect; as to activity change, negative = inhibition: % is scaled to controls: 0 for no effect and ±100 for the full control effect); conditions: NFkB beta-lactamase reporter cells, FRET ratio 460/530, stimulated with 10 pM TNF alpha; activity change, negative = inhibition: at 38.3 µM (top of the series)
# Summary of the method: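 NFkB-bla ME-180 cervical carcinoma cells with beta-lactamase reporter under NFkB response element; compounds added, then TNF alpha at 10 pM final (EC50), 5 h at 37 C. LiveBLAzer substrate 2 h, room temperature; emission 460/530 nm at 405 nm excitation.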
# [14] = qHTS Assay for Identification of Small Molecule Antagonists for Thrombopoietin (TPO) Signaling Pathway (AID 918); conditions: TPO-dependent cell signaling reporter, antagonist mode; activity change, negative = inhibition: at 38.5 µM (top of the series); also: nearly all actives have a fitted effect of over 60% in size; also: potency is read from the fitted curve at half-maximal effect
# Summary of the method: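 Antagonist mode at EC50 TPO (26 pM) in IL-3-free medium; murine Ba/F3 cells with human TPO receptor and GPIIb-promoter luciferase, 24 hrs at 37 C before luminescent detection.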
# [15] = target: D(1A) dopamine receptor (Homo sapiens) (UniProt P21728); test: HTS Assay for Allosteric Agonists of the Human D1 Dopamine Receptor: Primary Screen for Antagonists (AID 488983); conditions: D1 receptor cell assay, antagonist mode, qHTS titration; activity change, negative = inhibition: at 41.8 µM (top of the series);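 also: calcium flux response to an EC80 dopamine challenge measured with no-wash dye; potency is read from the fitted curve at half-maximal effect; nearly all actives have a fitted effect of over 65% in size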
# Chain of UniProt P21728 (P21728 whole entry, looked up): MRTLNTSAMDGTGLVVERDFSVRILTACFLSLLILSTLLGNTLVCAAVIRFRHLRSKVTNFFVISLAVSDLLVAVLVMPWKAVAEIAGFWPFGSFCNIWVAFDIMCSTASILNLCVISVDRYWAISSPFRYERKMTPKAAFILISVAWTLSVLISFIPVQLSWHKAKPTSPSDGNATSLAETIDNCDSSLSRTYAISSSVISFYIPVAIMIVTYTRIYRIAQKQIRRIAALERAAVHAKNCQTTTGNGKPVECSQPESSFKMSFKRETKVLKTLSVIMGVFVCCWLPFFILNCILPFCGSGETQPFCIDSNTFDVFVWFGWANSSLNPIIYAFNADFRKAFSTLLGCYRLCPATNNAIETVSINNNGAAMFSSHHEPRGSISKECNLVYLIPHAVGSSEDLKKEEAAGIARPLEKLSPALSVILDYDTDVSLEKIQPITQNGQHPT
# Summary of the method: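 In this primary screen, compounds are applied to calcium-dye-loaded HEK293 T-REx cells with force-coupled D1 expression induced overnight at 30 C. An EC80 of dopamine follows the 180 s compound phase, and calcium is monitored for a further 180 s.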
# [16] = qHTS Assay for Identifying Gametocytocidal Compounds (AID 743244); also: potency is read from the fitted curve at half-maximal effect; conditions: P. falciparum 3D7 stage III-V gametocytes, alamarBlue, 72 h; max response: hits give low values
# Summary of the method: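 P. falciparum 3D7 stage III–V gametocytes (20,000 cells/well) were exposed to compounds for 72 h at 37 °C, 5% CO2. AlamarBlue was then added for 24 h; decreased resorufin fluorescence (Ex 525/Em 598 nm) indicated loss of viability.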
# Tags tell the direction and shape of the fitted curve or compound fluorescence and quenching.
smiles,measurement,setting,value
O=C1O/C(=C/Br)CCC1c1cccc2ccccc12 (stereo not drawn),Potency,[1],"inconclusive [inhibitor, partial curve]"
same,Potency,[2],"inconclusive [inhibitor, partial curve, poor fit]"
same,Potency,[3],"inconclusive [inhibitor, single point]"
same,Potency,[4],inactive
same,Potency,[5],inactive
same,Potency,[6],"inconclusive [inhibitor, partial curve]"
same,Potency,[7],inactive
Ic1ccc(N2CCN(Cc3c[nH]c4ncccc34)CC2)cc1,Potency,[8],"inconclusive [inhibitor, partial curve, poor fit]"
same,Potency,[1],"inconclusive [inhibitor, partial curve]"
same,Potency,[2],"inconclusive [inhibitor, single point]"
same,Potency,[3],"inconclusive [inhibitor, single point]"
same,Potency,[4],"inconclusive [inhibitor, single point]"
same,Potency,[5],inactive
same,Potency,[9],active: 44.7 µM
same,Potency,[10],"inconclusive [falling, partial curve, poor fit]"
O=C(c1ccc(Cl)cc1)N1CCN(c2ccc([N+](=O)[O-])c3ncccc23)CC1,Potency,[11],inactive
same,Potency,[12],"inconclusive [inhibitor, partial curve]"
O=c1[nH]c2cc(C(F)(F)F)ccc2n1-c1cc(C(F)(F)F)ccc1O,Potency,[13],"inconclusive [inhibitor, partial curve]"
same,"activity change, negative = inhibition",[14],inconclusive: -14.6% [phenotype inactive]
same,Potency,[3],"inconclusive [inhibitor, single point]"
same,Potency,[6],"inconclusive [inhibitor, full curve]"
same,Potency,[11],inactive
same,Potency,[9],"inconclusive [inhibitor, partial curve]"
same,Potency,[15],"inconclusive [inhibitor, single point]"
same,Potency,[16],"inconclusive [inhibitor, single point]"
COC1=C(OC)C(=O)c2ccccc2C1=O,"activity change, negative = inhibition",[13],inconclusive: -39.8%
same,Potency,[14],active: 3.98 µM
same,Potency,[8],"inconclusive [inhibitor, full curve]"
same,Potency,[4],active: 11.2 µM
same,Potency,[5],"inconclusive [inhibitor, single point]"
same,Potency,[7],"inconclusive [falling, single point]"
same,Potency,[10],"inconclusive [falling, partial curve, poor fit]"
same,Potency,[12],inactive
